In PubChem BioAssay AID488969 (Vanderbilt High Throughput Screening Facility, 2010):
In all, about 110,000 compounds were measured (“z-score”: median about -0.1, highest 2% from about 2 on). The list shows a part of the results. The source made the active and inactive calls.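 How the source made its calls: active means z-score in the third read window above 3 or below -3; inactive means the rest.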

molecular target: Metabotropic glutamate receptor 8 (Rattus norvegicus) (UniProt P70579); test: mGluR8 Gi/Go-coupled signaling modulation – cell-based, rat, thallium flux, HTS, primary screen (AID 488969); conditions: HEK293 rat mGluR8, GIRK (G protein-gated inwardly rectifying potassium channel) thallium flux, FluoZin2; at 10 µM; stronger effect = higher value
UniProt P70579, sequence (P70579 whole entry, looked up): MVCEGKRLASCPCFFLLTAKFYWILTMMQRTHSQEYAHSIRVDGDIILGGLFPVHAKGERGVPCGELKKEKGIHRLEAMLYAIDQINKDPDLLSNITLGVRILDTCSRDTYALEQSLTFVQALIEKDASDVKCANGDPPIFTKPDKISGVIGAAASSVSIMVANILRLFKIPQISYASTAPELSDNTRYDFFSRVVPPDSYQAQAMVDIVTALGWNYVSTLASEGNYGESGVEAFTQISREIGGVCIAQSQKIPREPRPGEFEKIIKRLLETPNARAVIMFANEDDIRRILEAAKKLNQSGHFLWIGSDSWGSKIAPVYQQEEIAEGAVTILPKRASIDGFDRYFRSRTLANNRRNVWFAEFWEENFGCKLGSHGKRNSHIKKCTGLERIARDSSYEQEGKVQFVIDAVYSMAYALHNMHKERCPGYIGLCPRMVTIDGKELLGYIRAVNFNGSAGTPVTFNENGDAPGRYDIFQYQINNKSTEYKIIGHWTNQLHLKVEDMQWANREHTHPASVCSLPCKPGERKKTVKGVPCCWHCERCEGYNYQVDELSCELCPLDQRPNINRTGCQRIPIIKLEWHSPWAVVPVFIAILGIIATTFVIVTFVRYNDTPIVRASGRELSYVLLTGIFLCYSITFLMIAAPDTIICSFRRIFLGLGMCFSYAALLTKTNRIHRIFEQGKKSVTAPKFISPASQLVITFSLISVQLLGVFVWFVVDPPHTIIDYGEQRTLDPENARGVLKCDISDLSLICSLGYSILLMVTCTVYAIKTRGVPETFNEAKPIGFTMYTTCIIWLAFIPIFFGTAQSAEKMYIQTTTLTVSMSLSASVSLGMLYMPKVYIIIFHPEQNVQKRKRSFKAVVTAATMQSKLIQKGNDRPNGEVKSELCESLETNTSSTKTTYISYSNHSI

SMILES | z-score
CCCCN1CCC(C#N)(Nc2ccccc2)CC1 | 0.214
Cn1c(O)c(C=Nc2ccccc2Sc2ccccc2)c(=O)n(C)c1=O | -0.17
Cc1ccc(C2C(S(C)(=O)=O)=C(O)C(=O)N2c2ccccc2)cc1 (stereo unspecified) (tested in a mixture with another compound) | 0.165
CC1CCN2c3nc4ccccn4c(=O)c3CC3(C(=O)N(C)C(=O)N(C)C3=O)C2C1 (stereo unspecified) | 0.0728
CN(C)P(=O)(CCl)Nc1ccccc1 (stereo unspecified) | -0.0728
OC1(c2ccc(F)cc2)CC2CCC(C1)N2Cc1nnnn1C1CCCCC1 (stereo unspecified) | -0.327
Cc1ccnc(-n2c(C)cc(/C=C3\C(=O)NC(=S)N(C)C3=O)c2C)c1 | -0.4
Cc1cccc(-n2c(C)nc3ccccc3c2=O)n1 | -0.303
CN1CCC(N(C)c2ncnc3ccc(Br)cc23)CC1 | 0.106
CC1CN=C(NCc2ccccc2)S1 (stereo unspecified) | -0.0761
CC(C)(C)N(NC(=O)c1ccccc1)C(=O)c1ccccc1 | -0.0873
Cc1ccc(OP(=O)(O)Oc2ccc(C)cc2)cc1 | -0.0727
CN1CCN(c2ccc(S(C)(=O)=O)cc2[N+](=O)[O-])CC1 | -0.129
O=c1cccc2n1CC1CC2CN(Cc2ccc3c(c2)OCO3)C1 (stereo unspecified) | -0.105
O=C(CN1CCN(Cc2cccc(Cl)c2)C1=O)N1CCC2(CC1)OCCO2 | 0.000643
Cc1ccc(N2C(=O)NC(=O)/C(=C\c3cc(C)n(-c4sc5c(c4C#N)CCCC5)c3C)C2=O)cc1 | -0.0416
Cc1cc(OCC(=O)O)c2c3c(c(=O)oc2c1)CCCC3 | -0.721
CN(C)c1ccc2c(c1)N=C(c1ccco1)OP2(=S)N1CCOCC1 (stereo unspecified) | -0.87
Cc1ccc(/C=C2\C(=O)NC(=S)N(c3ccccc3F)C2=O)s1 | -0.129
Cc1ccc(S(=O)(=O)NCCC(=O)Nc2ccc(Cl)cc2C(=O)c2ccccc2)cc1 | -0.553
COC(=O)C(O)(c1ccc(NC(=S)NC(=O)c2ccc(Cl)cc2Cl)cc1)C(F)(F)F (stereo unspecified) | 0.304

SMILES | z-score
CC1=NN(c2ccccc2)C(=O)/C1=C/c1c(O)[nH]c(=S)[nH]c1=O | -0.419
Cc1ccc(S(=O)(=O)Nc2cc(C(=O)N3CCC4(CC3)OCCO4)ccc2N2CCCCC2)cc1 | -0.853
O=C(c1cccn2c(=O)c3ccccc3nc12)N1CCC2(CC1)OCCO2 | -0.138
CCn1c(=O)n(CC(=O)N2CCC3(CC2)OCCO3)c(=O)c2ccccc21 | -0.443
O=C(COc1ccc2ccccc2c1)N1CCN(Cc2ccncc2)CC1 | 0.0955
CN1/C(=C\C=C\C2=[N+](C)c3ccc4ccccc4c3C2(C)C)C(C)(C)c2ccccc21 | active: 5.85
CCCC(=O)C1C(=O)NC(=O)NC1=O | -0.0916
CCCN1CC(C)C(OC(C)=O)(c2ccccc2)CC1C (stereo unspecified) | 0.304
COc1ccc(Cn2c(O)c(C=NCCCn3ccnc3)c(=O)[nH]c2=O)cc1 | 0.683
OC(c1ccccc1)(c1ccccc1)C1CCCN1 (stereo unspecified) | 0.0188
CCN1CCN(Cc2cc(Br)cc(Br)c2O)CC1 | 0.0865
Nc1ccccc1C(=O)OCC(=O)Nc1ccc(Br)cc1F | -0.32
CCCNC(=O)c1c(N)n(Cc2ccco2)c2nc3ccccc3nc12 | -0.116
COc1ccccc1CN1CCN(C(=O)COc2cccc(C)c2)CC1 | 0.339
CCCN(CC#CCOc1ccc(OC)cc1)CCC | -0.216
CCOc1ccccc1-n1c(O)c(C=Nc2c(C)n(C)n(-c3ccccc3)c2=O)c(=O)[nH]c1=O | -0.694
CCC1(CCCC(=O)c2ccc(F)cc2)C(=O)NC(=S)NC1=O | 0.56
O=C1NC(=S)N(c2ccc(Cl)cc2)C(=O)/C1=C/N1CCN(C(=O)c2ccco2)CC1 | -0.294
COc1cc(C(=O)Nc2ccc(Br)cc2C(=O)c2ccccc2)cc(OC)c1OC | -0.262
CC12CN3CC(c4ccccc4)(CN(C1)C31CCCCC1)C2=O | -0.188
O=C(O)Cn1cc(C(=O)c2ccccc2)c2ccccc21 | 0.116

SMILES | z-score
C=CCn1c(O)c(C=NCCN2CCNCC2)c(=O)[nH]c1=O | 0.147
CCOc1ccc(CN(CCCl)CCCl)cc1C(=O)OC | 0.188
CCOC(=O)CC1=C(C(=O)OCC)C2(C(=O)N1CC(=O)OC)C(C#N)=C(N)Oc1ccccc12 (stereo unspecified) | 0.076
CC/C(=N\N1CCN(C)CC1)c1c(O)[nH]c(=O)[nH]c1=O | -0.343
O=C(c1ccco1)c1cn(Cc2ccccc2)c2ccccc12 | -1.14
CN1CCN(c2ccc(NC(=O)Oc3ccccc3)cc2)CC1 | -0.0101
O=C1NC(=O)C2(Cc3ccccc3N3CCOCC32)C(=O)N1c1ccccc1 (stereo unspecified) | 0.278
CCN(C(=O)Oc1ccccc1)c1ccc(C(O)(C(=O)OC)C(F)(F)F)cc1 (stereo unspecified) | -0.236
CC(=O)c1ccc2c(c1)C1C(Cl)C(Sc3ccccc3[N+](=O)[O-])CC1C(C(=O)O)N2 (stereo unspecified) | 0.0302
CCCc1nnc(NC(=O)CCC(=O)N2CCN(CCOC(c3ccccc3)c3ccccc3)CC2)s1 | -1.15
O=C1CC(N2CC=C(c3ccc(F)cc3)CC2)C(=O)N1c1ccc(F)cc1 (stereo unspecified) | 0.131
CC(C)Nc1nc(Cl)nc(NC(C)C)n1 | 0.193
O=C(Nc1ccccc1OC(=O)N1CCCCC1)N1CCCCC1 | -0.408
O=C(CCN1CCOCC1)NCC(=O)Nc1ccc(Br)cc1C(=O)c1ccccc1 | -0.201
CCOc1cccc(OCC)c2c(C)[n+](CC3CCCO3)c(C)c1-2 (stereo unspecified) | -0.993
O=P(OCC(F)(F)C(F)F)(N1CCOCC1)N1CCOCC1 | 1.67
CCOCCCN=Cc1c(O)n(Cc2ccccc2)c(=O)[nH]c1=O | 0.0752
C[N+]12CCC(CC1)C(C(O)(c1ccccc1)c1cccs1)C2 (stereo unspecified) | -0.0204
CCC(C)NS(=O)(=O)c1ccc(OCC(=O)N2CCN(CC)CC2)cc1 (stereo unspecified) | 0.685
CN1c2ccc([N+](=O)[O-])cc2CC2(C(=O)NC(=O)NC2=O)C1c1ccccc1 (stereo unspecified) | 0.507
CCCCn1c(O)c(C(CC)=Nc2ccc(C(=O)O)cc2)c(=O)[nH]c1=O | 0.472

SMILES | z-score
COC(=O)C(O)(c1c(C)[nH]n(-c2ccccc2)c1=O)C(F)(F)F (stereo unspecified) | -0.853
CS(=O)(=O)NCc1nnc2n1-c1ccc(Cl)cc1C(c1ccccc1)=NC2 | -0.129
Oc1c(Br)cc(Br)cc1CN1CCN(Cc2ccccc2)CC1 | -0.125
[O-][n+]1onc2c1CCC1N(O)CCC21O (stereo unspecified) | 0.089
CNCCc1c(C)n[nH]c1C | 0.202
CC12CN3CCN(CC(C3)C1O)C2 (stereo unspecified) | 0.0469
CNP1(NC)=Nc2nn(-c3ccccc3)c(N)c2C(c2ccccc2)=N1 | 0.657
CN1CCC2(CC1)C(C#N)=C(N)NC(S)=C2C#N | -0.227
CCN1CCN(CC(=O)c2c(C)n(Cc3ccccc3)c3ccc(OC)cc23)CC1 | 0.191
O=C1NC(=O)[C@]2(Cc3ccccc3N3CCN(c4ccccc4)CC32)C(=O)N1c1ccccc1 (stereo partly specified) | 0.0657
COc1ccc(C2SCC(=O)Nc3c2c(=O)[nH]n3C2CCCCC2)cc1 (stereo unspecified) | -0.0665
Cc1ccc(NP(=O)(Oc2ccccc2F)Oc2ccccc2F)cc1 | -0.159
CCCCn1c(N)c(C(=O)OCC2CCCO2)c2nc3ccccc3nc21 (stereo unspecified) | 0.91
CC(O)(CS(=O)(=O)c1cccc(C(F)(F)F)c1)C(=O)Nc1cccc(C(F)(F)F)c1 (stereo unspecified) | -0.217
CCN1C(=O)C(=C/C=C/c2ccco2)C(=O)N(CC)C1=S | -0.628
Cc1cccc(N=Cc2c(O)n(-c3ccccc3C)c(=O)[nH]c2=O)c1 | -0.357
CCCCCCCC(=O)NC(Oc1ccccc1[N+](=O)[O-])C(Cl)(Cl)Cl (stereo unspecified) | 0.238
Cc1ccc(C)c(CN2CCC(n3nnc4cc(F)ccc43)CC2)c1 | -0.0995
